Some test systems named below: UACC-257 melanoma; CCRF-CEM leukemia; SR leukemia; NCI-H226 lung; HOP-92 NSCLC; NCI-H23 lung.
Holding throughout (assay): NCI anticancer screen, dose series, 48 h

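A five-concentration, 48-hour dose response in 96-well plates underlies each endpoint, interpolated linearly between surrounding concentrations. GI50: concentration for 50% inhibition of growth. At the TGI there is no net growth.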 Calls of active or inactive are those of the source.

On to `Fc1ccc(-c2ncn(C3CCNCC3)c2-c2ccnc(Oc3ccc(Cl)cc3)n2)cc1`, for which the GI50 entry with UACC-257 melanoma, with CCRF-CEM leukemia, in the assay with SR leukemia, with NCI-H226 lung, with HOP-92 NSCLC and in the assay on NCI-H23 lung was “inactive” each time. Further, the TGI in the assay with UACC-257 melanoma is 7.58 µM; with CCRF-CEM leukemia, 16.9 µM; in the assay on SR leukemia, 11 µM; in the assay with NCI-H226 lung it was 13.6 µM; with HOP-92 NSCLC, 9.7 µM; in the assay on NCI-H23 lung, > 25 µM.
